Data: PubChem BioAssay AID624417 (National Center for Advancing Translational Sciences (NCATS), 2012)
The whole screen tested about 410,000 compounds, of which about 6,400 (1.6%) were called active. This list was built around the results that the source calls inconclusive (neither active nor inactive); the mix of calls is not that of the screen. Calls follow the shape of the dose curve; as a rule, active = well fitted inhibition curve with a large enough effect; inconclusive = small, poorly fitted or top-dose-only effect; inactive = no such curve, though single readings can be large or run the other way. Where the call is inconclusive, the potency comes from a doubtful curve fit.

Biological target: Glucagon-like peptide 1 receptor (Homo sapiens) (UniProt P43220)
Test: qHTS of GLP-1 Receptor Inverse Agonists (Inhibition Mode); also: nearly all actives have a fitted effect of over 55% in size
Conditions: HEK293 GLP-1R CRE-luciferase, luminescence, 24 h, GLP-1R form is constitutively active; series mostly up to 38.3 µM
Method in brief: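 HEK293 cells stably co-expressing a cAMP-responsive luciferase reporter and constitutively active GLP-1R were seeded, incubated 12 h, then exposed to compounds for 24 h at 37 C. Luminescence was read 12 min after detection reagent; inverse agonists lower signal.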
Potency is read from the fitted curve at half-maximal effect; tags tell the direction and shape of the fitted curve.

UniProt P43220, sequence (P43220 whole entry, looked up): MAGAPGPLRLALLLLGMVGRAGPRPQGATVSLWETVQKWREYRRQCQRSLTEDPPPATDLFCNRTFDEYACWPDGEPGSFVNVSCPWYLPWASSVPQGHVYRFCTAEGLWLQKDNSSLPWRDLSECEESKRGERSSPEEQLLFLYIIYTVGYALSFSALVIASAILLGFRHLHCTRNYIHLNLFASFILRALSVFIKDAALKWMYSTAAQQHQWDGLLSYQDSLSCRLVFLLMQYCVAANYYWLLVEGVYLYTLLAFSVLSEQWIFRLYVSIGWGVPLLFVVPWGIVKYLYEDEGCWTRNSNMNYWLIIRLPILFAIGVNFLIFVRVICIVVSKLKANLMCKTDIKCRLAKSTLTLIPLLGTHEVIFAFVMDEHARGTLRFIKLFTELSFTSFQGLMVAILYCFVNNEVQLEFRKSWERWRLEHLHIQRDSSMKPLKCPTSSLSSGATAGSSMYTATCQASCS

Potency, active:
CC(O)CNc1nc2sc3c(c2c(=O)n1CCc1ccccc1)CCCCC3 (stereo not drawn) 4.47 µM

Potency, inconclusive:
CN(CCOc1ccccc1)C(=O)CCc1c[nH]c2ccccc12 14.1 µM [inhibitor, partial curve, poor fit]
CCCCN1CC(c2nc3ccccc3n2CCCCOc2cc(C)ccc2C)CC1=O (stereo not drawn) 12.6 µM [inhibitor, single point]
Nc1ccc(C23CC4CC(CC(O)(C4)C2)C3)cc1 8.91 µM [inhibitor, single point]
Oc1ccc(Oc2ccc(Oc3ccc(O)cc3)cc2)cc1 28.2 µM [inhibitor, single point]
COc1cccc(CN2CC(C(=O)N(C)CCCC3CCCC3)CCC2=O)c1 (stereo not drawn) 11.2 µM [inhibitor, partial curve, poor fit]
O=C(Cc1cccc2ccccc12)NCCOc1ccccc1F 28.2 µM [inhibitor, single point]
CC(C)c1ccc(NC2CCCN(C(=O)CCN3Cc4ccccc4C3=O)C2)cc1 (stereo not drawn) 28.2 µM [inhibitor, single point]
Clc1cccc(Cl)c1Cn1c(-c2cccnc2Cl)nc2ccccc21 8.91 µM [inhibitor, single point]
CN(C)c1ccc(/C=N/NC(=O)c2nnn(-c3nonc3N)c2CN2CCCCCC2)cc1 3.98 µM [inhibitor, single point]
N=C(N)SCCc1cccc(CCSC(=N)N)c1 28.2 µM [inhibitor, single point]
Cc1ccc(-c2cc(C(=O)NNC(=O)c3csc(N4CCOCC4)n3)c3ccccc3n2)cc1 28.2 µM [inhibitor, single point]
Cc1ccc(NC(=O)c2c(C)cc(C)nc2SCC(=O)Nc2ccc(Br)cc2)cc1 7.94 µM [inhibitor, partial curve, poor fit]
COc1ccc(N(Cc2cc3ccccc3[nH]c2=O)C(=O)c2cccc(Cl)c2)cc1 31.6 µM [inhibitor, single point]
COc1ccc(C2=NN(C(=O)CSc3nc4ccccc4s3)C(c3ccc(OC)cc3)C2)cc1 (stereo not drawn) 6.31 µM [inhibitor, partial curve, poor fit]

Potency, inactive:
CC(=O)N1c2ccccc2CC1C(=O)N1CCN(c2ccccc2)CC1 (stereo not drawn)
Cn1c(NN)nc2sc3c(c2c1=O)CC(C)(C)OC3
Cc1[nH]n(S(=O)(=O)Cc2ccccc2)c(=O)c1N=Nc1ccccc1Cl
